Experimental data taken from the supplement of paper PMC4604168 (melanoma cell lines).
The other results are listed elsewhere or left out. Single values are uncertain, as repeats are few or missing.

How the values were obtained:
Assay in all cases: cell count relative to DMSO control; melanoma cells; higher = more viable cells
Settings in all cases: library dose: low library concentration; 72 h
WM115 = test system: WM115
WM1716 = test system: WM1716
WM1745 = test system: WM1745
WM3526 = test system: WM3526
WM3619 = test system: WM3619
WM451Lu = test system: WM451Lu
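Also: cell number obtained by counting DAPI-stained nuclei in high-throughput microscope images with image analysis software, screen run in 1,536-well plates.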

Structure (SMILES)	cell count (WM115) [%]	cell count (WM1716) [%]	cell count (WM1745) [%]	cell count (WM3526) [%]	cell count (WM3619) [%]	cell count (WM451Lu) [%]
CN(c1ncccc1CNc1nc(Nc2ccc3c(c2)CC(=O)N3)ncc1C(F)(F)F)S(C)(=O)=O + NCC(=O)Nc1ccc(-n2nc(C(F)(F)F)cc2-c2ccc3c(ccc4ccccc43)c2)cc1 [OSU03012] (first compound 0.08 µM, partner dose 1 µM)	69.6	89.5	64	72.5	79.6	62.7
C=C(c1ccc(C(=O)O)cc1)c1cc2c(cc1C)C(C)(C)CCC2(C)C [Bexarotene] + Clc1ccc(Nc2nnc(Cc3ccncc3)c3ccccc23)cc1 [vatalanib] (first compound 2 µM, partner dose 2 µM)	91.2	89	102	93.6	90.7	98.5
C=C(c1ccc(C(=O)O)cc1)c1cc2c(cc1C)C(C)(C)CCC2(C)C [Bexarotene] + COc1cc2c(Oc3ccc4[nH]c(C)cc4c3F)ncnc2cc1OCCCN1CCCC1 [cediranib] (first compound 2 µM, partner dose 0.4 µM)	92.4	88.6	90.2	110	90.1	74.6
NC1(c2ccc(-c3nc4ccn5c(=O)[nH]nc5c4cc3-c3ccccc3)cc2)CCC1 + CC(C)(C)c1cnc(CSc2cnc(NC(=O)C3CCNCC3)s2)o1 [SNS-032] (first compound 0.4 µM, partner dose 0.01 µM)	75.5	103	88.8	75.4	95.3	101
NC1(c2ccc(-c3nc4ccn5c(=O)[nH]nc5c4cc3-c3ccccc3)cc2)CCC1 + Clc1ccc(Nc2nnc(Cc3ccncc3)c3ccccc23)cc1 [vatalanib] (first compound 0.4 µM, partner dose 2 µM)	65.5	89.6	84.3	65.2	68.8	77.6
C=C(c1ccc(C(=O)O)cc1)c1cc2c(cc1C)C(C)(C)CCC2(C)C [Bexarotene] + COc1ccc(Cl)c(Nc2nc3ccccc3nc2NS(=O)(=O)c2cccc(NC(=O)C(C)(C)N)c2)c1 [XL147] (first compound 2 µM, partner dose 0.8 µM)	103	95.1	83.7	109	84.7	96.9
CS(=O)(=O)c1ccc(C(=O)Nc2ccc(Cl)c(-c3ccccn3)c2)c(Cl)c1 [vismodegib] + O=S(=O)(c1ccccc1)N(CC(F)(F)F)c1ccc(C(O)(C(F)(F)F)C(F)(F)F)cc1 [T0901317] (first compound 1 µM, partner dose 1.4 µM)	90.3	92.1	83.1	88.5	88.1	106
C=C(c1ccc(C(=O)O)cc1)c1cc2c(cc1C)C(C)(C)CCC2(C)C [Bexarotene] + Nc1ncn([C@H]2C[C@H](O)[C@@H](CO)O2)c(=O)n1 [decitabine] (first compound 2 µM, partner dose 0.1 µM)	91.3	80.8	95.5	79.3	106	90
CCCS(=O)(=O)Nc1ccc(F)c(C(=O)c2c[nH]c3ncc(Cl)cc23)c1F + O=C(O)C(=O)Nc1sc2c(c1C(=O)O)CCNC2 [TCS401] (first compound 0.08 µM, partner dose 1.66667 µM)	106	101	84.6	71.7	103	68.2
CN(c1ncccc1CNc1nc(Nc2ccc3c(c2)CC(=O)N3)ncc1C(F)(F)F)S(C)(=O)=O + CN1CCN(c2ccc3nc(-c4c(N)c5c(F)cccc5[nH]c4=O)[nH]c3c2)CC1 [Dovitinib] (first compound 0.08 µM, partner dose 0.1 µM)	87.8	82.3	80.4	108	112	78.9
CS(=O)(=O)c1ccc(C(=O)Nc2ccc(Cl)c(-c3ccccn3)c2)c(Cl)c1 [vismodegib] + C#Cc1cccc(Nc2ncnc3cc(OCCOC)c(OCCOC)cc23)c1 [erlotinib] (first compound 1 µM, partner dose 0.8 µM)	105	96.9	85.8	91.6	118	93.6
CS(=O)(=O)c1ccc(C(=O)Nc2ccc(Cl)c(-c3ccccn3)c2)c(Cl)c1 [vismodegib] + CCN(CC)CCNC(=O)c1c(C)[nH]c(/C=C2\C(=O)Nc3ccc(F)cc32)c1C [sunitinib] (first compound 1 µM, partner dose 0.4 µM)	128	128	105	90.9	137	93.9
CS(=O)(=O)c1ccc(C(=O)Nc2ccc(Cl)c(-c3ccccn3)c2)c(Cl)c1 [vismodegib] + O=c1cc(-c2cccc3c2Sc2ccccc2S3)oc(N2CCOCC2)c1 [KU55933] (first compound 1 µM, partner dose 1 µM)	96.6	109	101	116	104	101
NC1(c2ccc(-c3nc4ccn5c(=O)[nH]nc5c4cc3-c3ccccc3)cc2)CCC1 + Oc1cc(-c2nc(-c3ccccc3)[nH]c2-c2ccncc2)ccc1Cl [L779450] (first compound 0.4 µM, partner dose 0.2 µM)	103	111	109	76.3	79.5	102
NC1(c2ccc(-c3nc4ccn5c(=O)[nH]nc5c4cc3-c3ccccc3)cc2)CCC1 + C[C@@H](Oc1cc(-c2cnn(C3CCNCC3)c2)cnc1N)c1c(Cl)ccc(F)c1Cl [Crizotinib] (first compound 0.4 µM, partner dose 0.2 µM)	68.1	89.1	84.2	57.4	98.5	90.2
CCCS(=O)(=O)Nc1ccc(F)c(C(=O)c2c[nH]c3ncc(Cl)cc23)c1F + COc1ccc2c(c1)CCC1C2CCC2(C)C(NCCCCCCN3C(=O)C=CC3=O)CCC12 [U73122] (first compound 0.08 µM, partner dose 0.4 µM)	102	109	129	103	99	94.2
CS(=O)(=O)c1ccc(C(=O)Nc2ccc(Cl)c(-c3ccccn3)c2)c(Cl)c1 [vismodegib] + N#Cc1c(O)c2c(-c3ccc(-c4ccccc4O)cc3)csc2[nH]c1=O [A769662] (first compound 1 µM, partner dose 2 µM)	94.2	99.1	115	93.7	102	115
CS(=O)(=O)c1ccc(C(=O)Nc2ccc(Cl)c(-c3ccccn3)c2)c(Cl)c1 [vismodegib] + CC(C)C[C@H](NC(=O)[C@H](Cc1ccccc1)NC(=O)c1cnccn1)B(O)O [Bortezomib] (first compound 1 µM, partner dose 0.001 µM)	97.8	78	87.6	80.4	74.4	101
NC1(c2ccc(-c3nc4ccn5c(=O)[nH]nc5c4cc3-c3ccccc3)cc2)CCC1 + COc1ccc(-c2ccc3c(N4CCOCC4)nc(N4C[C@@H](C)O[C@@H](C)C4)nc3n2)cc1CO [KU0063794] (first compound 0.4 µM, partner dose 0.02 µM)	69.8	80.7	84.8	65.6	74.7	104
CCCS(=O)(=O)Nc1ccc(F)c(C(=O)c2c[nH]c3ncc(Cl)cc23)c1F + C[C@@H]1CCN(C(=O)CC#N)C[C@@H]1N(C)c1ncnc2[nH]ccc12 [CP690550] (first compound 0.08 µM, partner dose 1 µM)	92.3	116	85.8	87.9	93.6	106
CN(c1ncccc1CNc1nc(Nc2ccc3c(c2)CC(=O)N3)ncc1C(F)(F)F)S(C)(=O)=O + Cc1cc(N2CCOCC2)cc2[nH]c(-c3c(NC[C@@H](O)c4cccc(Cl)c4)cc[nH]c3=O)nc12 [BMS536924] (first compound 0.08 µM, partner dose 0.2 µM)	83.1	104	64.2	88.4	94.1	75.9
CCCS(=O)(=O)Nc1ccc(F)c(C(=O)c2c[nH]c3ncc(Cl)cc23)c1F + COc1cc(Nc2ncc(F)c(Nc3ccc4c(n3)NC(=O)C(C)(C)O4)n2)cc(OC)c1OC [Tamatinib] (first compound 0.08 µM, partner dose 0.4 µM)	77.3	97.2	69.2	60.3	99.7	91.2
NC1(c2ccc(-c3nc4ccn5c(=O)[nH]nc5c4cc3-c3ccccc3)cc2)CCC1 + Cn1cc(/C=C2\C(=O)Nc3cccnc32)c2ccccc21 [GW441756] (first compound 0.4 µM, partner dose 0.4 µM)	78.9	93.6	89.8	66.3	85.7	115
NC1(c2ccc(-c3nc4ccn5c(=O)[nH]nc5c4cc3-c3ccccc3)cc2)CCC1 + Cn1c(Nc2ccc(C(F)(F)F)cc2)nc2cc(Oc3ccnc(-c4ncc(C(F)(F)F)[nH]4)c3)ccc21 [CHIR265] (first compound 0.4 µM, partner dose 0.08 µM)	38.5	76.6	80.7	51.4	79.8	89.4
NC1(c2ccc(-c3nc4ccn5c(=O)[nH]nc5c4cc3-c3ccccc3)cc2)CCC1 + Nc1nc(F)nc2c1ncn2[C@@H]1O[C@H](CO)[C@@H](O)[C@@H]1O [fludarabine] (first compound 0.4 µM, partner dose 0.2 µM)	58.8	95.9	106	28.6	106	44
